In article PMC5989226 (Nature Communications, 2018) one finds binding data, which are given here for 7 molecules.

The assay has as its target T1, HA-AHG1 (Arabidopsis) (UniProt Q9FLI3).
T1 sequence: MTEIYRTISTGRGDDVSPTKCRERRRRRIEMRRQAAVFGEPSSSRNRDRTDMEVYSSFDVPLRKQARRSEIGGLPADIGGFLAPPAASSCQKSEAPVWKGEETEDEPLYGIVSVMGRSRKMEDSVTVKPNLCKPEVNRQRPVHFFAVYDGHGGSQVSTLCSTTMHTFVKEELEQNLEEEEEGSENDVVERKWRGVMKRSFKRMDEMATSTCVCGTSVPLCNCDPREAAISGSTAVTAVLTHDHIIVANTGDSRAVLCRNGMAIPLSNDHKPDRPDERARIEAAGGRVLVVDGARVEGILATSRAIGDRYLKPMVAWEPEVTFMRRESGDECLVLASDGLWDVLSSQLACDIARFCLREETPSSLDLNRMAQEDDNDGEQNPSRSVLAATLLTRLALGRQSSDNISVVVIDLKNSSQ
Kind of assay: co-IP; co-expression in N. benthamiana leaves; extraction buffer 50 mM Na-phosphate pH 7.4, 150 mM NaCl, 0.1% NP-40, 1 mM DTT; anti-HA matrix 3 h at 4 °C; blots with anti-GFP and anti-HA; leaves with or without 100 μM ABA or 50 μM hemin for 24 h.

These are yes or no findings as the source states them, for the method shown. In cells and extracts the contact can be indirect. Some results given as binding are weak or reduced against the parent protein; the word gives no strength. Where a sequence is shown, tags or fusion partners need not be part of it.

B1: YFP-DOG1_(Δ257-291) (domain or fragment, UniProt A0SVK0 1-256)
chain: MGSSSKNIEQAQDSYLEWMSLQSQRIPELKQLLAQRRSHGDEDNDNKLRKLTGKIIGDFKNYAAKRADLAHRCSSNYYAPTWNSPLENALIWMGGCRPSSFFRLVYALCGSQTEIRVTQFLRNIDGYESSGGGGGASLSDLSAEQLAKINVLHVKIIDEEEKMTKKVSSLQEDAADIPIATVAYEMENVGEPNVVVDQALDKQEEAMARLLVEADNLRVDTLAKILGILSPVQGADFLLAGKKLHLSMHEWGTMRD
With B1, the binding result is listed as “binds”.

B2: YFP-DOG1 (protein, UniProt A0SVK0 1-291)
chain: MGSSSKNIEQAQDSYLEWMSLQSQRIPELKQLLAQRRSHGDEDNDNKLRKLTGKIIGDFKNYAAKRADLAHRCSSNYYAPTWNSPLENALIWMGGCRPSSFFRLVYALCGSQTEIRVTQFLRNIDGYESSGGGGGASLSDLSAEQLAKINVLHVKIIDEEEKMTKKVSSLQEDAADIPIATVAYEMENVGEPNVVVDQALDKQEEAMARLLVEADNLRVDTLAKILGILSPVQGADFLLAGKKLHLSMHEWGTMRDRRRRDCMVDTEVIFDACTTVNSGPRPTETTNNERN
As for B2, the binding result is “binds”.

B3: YFP-DOG1^H245AH249A (protein, UniProt A0SVK0 1-291)
chain: MGSSSKNIEQAQDSYLEWMSLQSQRIPELKQLLAQRRSHGDEDNDNKLRKLTGKIIGDFKNYAAKRADLAHRCSSNYYAPTWNSPLENALIWMGGCRPSSFFRLVYALCGSQTEIRVTQFLRNIDGYESSGGGGGASLSDLSAEQLAKINVLHVKIIDEEEKMTKKVSSLQEDAADIPIATVAYEMENVGEPNVVVDQALDKQEEAMARLLVEADNLRVDTLAKILGILSPVQGADFLLAGKKLALSMAEWGTMRDRRRRDCMVDTEVIFDACTTVNSGPRPTETTNNERN
Take B3: the binding result is recorded as “binds”.

B4: YFP-DOG1^H245A (protein, UniProt A0SVK0 1-291)
chain: MGSSSKNIEQAQDSYLEWMSLQSQRIPELKQLLAQRRSHGDEDNDNKLRKLTGKIIGDFKNYAAKRADLAHRCSSNYYAPTWNSPLENALIWMGGCRPSSFFRLVYALCGSQTEIRVTQFLRNIDGYESSGGGGGASLSDLSAEQLAKINVLHVKIIDEEEKMTKKVSSLQEDAADIPIATVAYEMENVGEPNVVVDQALDKQEEAMARLLVEADNLRVDTLAKILGILSPVQGADFLLAGKKLALSMHEWGTMRDRRRRDCMVDTEVIFDACTTVNSGPRPTETTNNERN
Regarding B4, the binding result is “binds”.

B5: YFP-DOG1_(Δ1–12) (domain or fragment, UniProt A0SVK0 13-291)
chain: DSYLEWMSLQSQRIPELKQLLAQRRSHGDEDNDNKLRKLTGKIIGDFKNYAAKRADLAHRCSSNYYAPTWNSPLENALIWMGGCRPSSFFRLVYALCGSQTEIRVTQFLRNIDGYESSGGGGGASLSDLSAEQLAKINVLHVKIIDEEEKMTKKVSSLQEDAADIPIATVAYEMENVGEPNVVVDQALDKQEEAMARLLVEADNLRVDTLAKILGILSPVQGADFLLAGKKLHLSMHEWGTMRDRRRRDCMVDTEVIFDACTTVNSGPRPTETTNNERN
As to B5, the binding entry is given as “binds”.

B6: YFP-DOG1_(Δ1–6) (domain or fragment, UniProt A0SVK0 7-291)
chain: NIEQAQDSYLEWMSLQSQRIPELKQLLAQRRSHGDEDNDNKLRKLTGKIIGDFKNYAAKRADLAHRCSSNYYAPTWNSPLENALIWMGGCRPSSFFRLVYALCGSQTEIRVTQFLRNIDGYESSGGGGGASLSDLSAEQLAKINVLHVKIIDEEEKMTKKVSSLQEDAADIPIATVAYEMENVGEPNVVVDQALDKQEEAMARLLVEADNLRVDTLAKILGILSPVQGADFLLAGKKLHLSMHEWGTMRDRRRRDCMVDTEVIFDACTTVNSGPRPTETTNNERN
With B6, the binding entry is listed as “binds”.

B7: YFP-DOG1_(Δ7–12) (protein, UniProt A0SVK0)
chain: MGSSSKDSYLEWMSLQSQRIPELKQLLAQRRSHGDEDNDNKLRKLTGKIIGDFKNYAAKRADLAHRCSSNYYAPTWNSPLENALIWMGGCRPSSFFRLVYALCGSQTEIRVTQFLRNIDGYESSGGGGGASLSDLSAEQLAKINVLHVKIIDEEEKMTKKVSSLQEDAADIPIATVAYEMENVGEPNVVVDQALDKQEEAMARLLVEADNLRVDTLAKILGILSPVQGADFLLAGKKLHLSMHEWGTMRDRRRRDCMVDTEVIFDACTTVNSGPRPTETTNNERN
As to B7, the binding entry is on record as “binds”.
